In publication PMC10726135:
The other results are listed elsewhere or left out. At the low end of the ranking, values are background and their order means little. The protein was read in a cell extract, so binding may be indirect.

molecular target: T1, HNF4alpha2 (COS-7 nuclear extract) (UniProt P41235); experiment: protein-binding microarray; settings: COS-7 nuclear extract on double-stranded Agilent 4x180k PBM; binding buffer, salt, pH and temperature not given; high values mean tight binding; double strand, one strand shown; sequences stand for … in …GCCTAGGGAGATTAGAGTATCGGTCGA
T1 sequence: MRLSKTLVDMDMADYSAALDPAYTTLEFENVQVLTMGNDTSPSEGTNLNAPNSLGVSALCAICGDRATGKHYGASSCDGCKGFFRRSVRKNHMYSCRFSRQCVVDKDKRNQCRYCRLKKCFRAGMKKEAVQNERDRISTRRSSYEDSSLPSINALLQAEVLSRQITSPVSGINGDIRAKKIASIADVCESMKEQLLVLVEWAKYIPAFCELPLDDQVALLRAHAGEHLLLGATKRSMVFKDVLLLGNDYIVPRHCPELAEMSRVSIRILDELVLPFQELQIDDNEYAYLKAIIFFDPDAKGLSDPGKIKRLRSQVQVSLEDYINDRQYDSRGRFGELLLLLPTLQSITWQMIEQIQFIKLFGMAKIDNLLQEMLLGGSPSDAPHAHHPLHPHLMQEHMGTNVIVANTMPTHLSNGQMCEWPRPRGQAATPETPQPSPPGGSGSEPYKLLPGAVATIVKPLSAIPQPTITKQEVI

Sequence	binding signal (log2 normalized intensity)
CTTTGGCCAAGGGCAGTGTTTGCCCAGCTT	0.106
GCCCTCCCCCAGAGAGAACAGTCCTACAAA	2.08
CTGCCCAGACACACAATATTATGTTTTGTT	1.01
TGATTATTTGTGAAGGCATTATTGGTGAAA	1.29
GTGTTCTGCTGCCATTGGATGGAATGTTCT	1.78
GTACAGCCTTTGATCTACAGTCAGAGGCCT	-1.15
GCTTATCTCACTCCAAAGGCTGTTTGCACC	1.29
TGGGTTCAAAGAGCACATTCCTGCACCATA	2.09
TGCAAGAGAGCAAACTTCAAAGAAGCTGTT	-1.08
CAGAAGACTACAAATTCCTCAATCCAGTCA	-1.04
GGAAGAGGAAGCATCCTATAGGCCTATAAT	-1.14
TTGTGGCAGTGAGAACAGGTTCATTCTTTA	0.513
AGGCATACCTTTCTTATCATAAGTAAAAAG	-0.0783
TGTGACAAGAAAGACCCAAGGCGTATGAAG	-1.19
GCGTCATCAGTCCAGGAGGGTCACAAGTCC	2.26
CTTCCAAGTCTCAGCACCTGTGCTTCACTC	-0.874
CCTTATCTGAATTCCAGCATCACTAATGTC	0.912
GCCTCATTTCACCTTTGGTCTTTGGTGAAA	3.59
GTCCCCCGACCCGCCCGACTACAACAGCCT	5.04
CCACCTAGGCCGGTCAAGTCAGAGGCCCAG	-0.935
GGACAGACACACCCTTCAGAGCTTGAAAAG	-1.1
AATACACAATCTGAAGTCCCCTGTGCTTTG	1.93
CCACCACTGCTTCCTGCCCCCTGTGGTCAA	4.46
GTGGGAAGGGATCAGAAATTGATTTGTAAC	0.0598
CAGGGTGGGGTCTCGCTGCTTCGGCCTTTG	1.33

Sequence	binding signal (log2 normalized intensity)
TACAGAATTCTCATGGAGGACTTTGGCCTT	7.11
TAAATCCCTGCCAAAATATGTCAAGTAGCT	-1.18
CACAATGATAACAGCGTTTTCCCATTCATG	-0.36
TCTCTGGGTCAAAGGTCATCGCACCGGCAG	7.15
GAATGACTTTGGGGAAATGACCTTTGTCCA	8.8
AGTATTTTCTGTCTAGGTGCCAGAATTGCT	-1.14
CCTAAATTCAAATGGACCCAAGCGGCCATT	1.24
AAGACTCACATCTATCTCCCTACCCTCACC	2.07
CACACACCCCTCCACTGGACAGCAGCTACA	1.55
CTGGCAGAGGGGATCAAGTGGCAATAAACT	-1.14
AATGTCTTTTAAATACATAGCTGGGATGAG	0.646
TGAGGGAGCAAAGGGCATGGAGGATTTAGA	1.85
TAGCTCCAGTTGGTTGCTAAGAGACAGCTC	-0.894
TGCATTCCTTTGTTTATCTAACCCACATCC	1.51
CCTTTTTAATGTTTCATTAAGCAAGATATG	1.31
TGTGGGCGGGTGCAGCTTCCACCTGCAAGG	-1.07
AGTCCATGTGTTAAATAATAACACTCCCAT	0.579
TTTCTCAGCTCTCCTCTGCCTCCAGCTGTT	-1.14
AGAATCATCTTTGAGCTGGATGACCTTTGT	7.46
TGATAAGGAAACTTAAGTCTCAAAGGTCAG	5.44
AAGGAATTTAGCCTTTAACCTGCAGTTTCC	1.38
GCCTGCCCCTCTGACCTCTCCTCCTACCTT	3.24
CCTCCTGCCTTTCCCTTATCAGGACTTTGT	3.71
CAATTTTCAGGGTTAAAAGTTCTGCTGAGT	0.862
TCGTCCCACAATGCATTCCATATGGATTAA	1.2

Sequence	binding signal (log2 normalized intensity)
CCCCCCACCCCAGAAGTATGGGAAGCTGAG	3.48
AGCAGTCTGAGTAGGAAAGACTTGCTCATT	-0.18
AGACCTTTGACATCACCTAACTTGTGGCTG	0.674
TCATTTTACAGATAAGGAAACCAAGGTCCA	1.45
AACACTTGTGTCAACCGTGTCAACATTGCG	-1.19
GCCTCCAAAGTCCGCTTGCCTGAGGGTCAT	2.41
TAGGTACTATTATTAGAGTCCCTTTTTTAG	-0.137
TTTGATAATTACAGAGCAAGTAGAGCTGCT	-1.09
AAAGTTTATGTGTGAGCCTATAATTGATGT	1.5
AGGGTTAAATCTCGGTATAATTCCTAAATA	-1.1
TTACACCTGGGTGCTCCCTCCCCCTGCATG	4.23
GCCTGCACACGGTGTCCAGATTCCAGCCTC	-1
TCTATCCAGATGATCTTTACCCTGGAATGC	2.55
ATAGGGTCAGTCTTTGTTCTAGTAAGGCCT	1.71
ATAGGAACATGAACTGAGCAGGCCTGGGCT	-1.04
GTGGACTTTGTCCTGTGGGCTGTAAAAATC	5.03
GGGCCCCATCATGTGTACAGAGCTGAAGTT	0.913
TCGAGGACAGGATGGGGGTGGGAGGCTGGG	-1.07
CTATCATTATCTCTCACTGCAGAAACTCTG	1.35
CGGATGACTCTTGGGCAGTCTAAAGTCTGA	1.35
TACAAACACCAACCTGTTCCAAAGTCCACC	6.05
GCAAAGGTTTCCTAAACAGTTACCGAGAGG	-1.09
CTGCACAGGACTGCTCTCTACTCAGGGGGT	-1.05
